PubChem BioAssay AID686979 (National Center for Advancing Translational Sciences (NCATS), 2013)
About 50,000 (12%) of roughly 420,000 compounds were called active. This list was built around the results that the source calls inconclusive (neither active nor inactive); the mix of calls is not that of the screen. Calls come from the whole dose curve; as a rule, active = well fitted inhibition curve with a large enough effect; inconclusive = small, poorly fitted or top-dose-only effect; inactive = flat fitted curve, though single readings scatter. No potency is given beside an inconclusive call; the fits are too rough.

Test: qHTS for Inhibitors of human tyrosyl-DNA phosphodiesterase 1 (TDP1): qHTS in cells in presence of CPT; note: nearly all actives have a fitted effect of over 55% in size
Details: chicken DT40 Tdp1-/-;hTDP1 cells + 20 nM CPT, ATP luminescence, 48 h; activity change, negative = growth inhibition: at 46.2 µM (top of the series)
In short: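 Cell growth measured by CellTiter-Glo luminescence after a minimum 48 h, 37 C compound exposure with 20 nM CPT in Tdp1-knockout DT40 cells stably expressing hTDP1, seeded 400/well; qHTS titration format.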
% is set by controls: 0 for no effect and ±100 for the full control effect; potency is the fitted concentration of half-maximal effect; tags give direction and shape of the fitted curve.

| Compound | Potency | activity change, negative = growth inhibition |
| --- | --- | --- |
| COc1ccc(-c2cc(C(=O)NCc3ccc(C(F)(F)F)cc3)[nH]n2)c(C)c1 | inconclusive [inhibitor, single point] |  |
| Cc1nn(C(C)(C)C)c(OC(=O)C2CCCC2)c1S(=O)(=O)c1ccccc1 | inconclusive [inhibitor, single point] |  |
| COc1ccccc1CNc1ccnc(-c2ccccc2Cl)n1 | inconclusive [inhibitor, single point] |  |
| Cc1nccn1CCN(C)Cc1cn(Cc2ccccc2)nc1-c1ccc2c(c1)OCO2 | inconclusive [inhibitor, single point] |  |
| CCCCCCCCCCC(C)(C)C(=O)Nc1c(OC)cc(OC)cc1OC | active: 10 µM |  |
| CCOc1ccc(S(=O)(=O)NCCC(=O)NCC2COc3ccccc3O2)cc1 (stereo not given) |  | inactive: -17.8% |
| COc1ccc2[nH]c3c(c2c1)CCN1C(=O)N([C@@H](C)C(=O)NC2CCCC2)C(=O)[C@]31C | active: 11.6 µM |  |
| COCCNC(=O)c1cc(Sc2ccc(F)cc2F)nc2ccccc12 |  | inactive: -29.2% |
| CC(C(=O)NC1CCCCCC1)c1ccc([N+](=O)[O-])cc1 (stereo not given) |  | inactive: 9.33% |
| CC1(C(=O)NS(=O)(=O)C2CC2)CCCN(C(=O)c2ccc(C(F)(F)F)cc2)C1 (stereo not given) | active: 0.731 µM |  |
| COC(=O)c1c(NC(=O)CN2CCN(S(=O)(=O)c3ccccc3[N+](=O)[O-])CC2)sc2c1CCC(C)C2 (stereo not given) |  | inactive: -7.69% |
| CCC1CCC2(CC1)NNC(=S)NN2 | inconclusive [inhibitor, single point] |  |
| Cc1cccc(-c2cnc(C(O)c3ccc(Cl)cc3C)[nH]2)c1 (stereo not given) | inconclusive [inhibitor, single point] |  |
| COc1ccc(-n2c(C)cc(-c3csc(N)n3)c2C)cc1 | inconclusive [inhibitor, single point] |  |
| CCc1ccc(S(=O)(=O)c2nnn3c2nc(NC2CCCC2)c2sccc23)cc1 | active: 23.1 µM |  |
| CC(Sc1nnc2ccccn12)C(N)=O (stereo not given) |  | inactive: 0.991% |
| CCOc1ccccc1C1CC(c2ccc(Br)cc2)Nc2nc(N)nn21 (stereo not given) | inconclusive [inhibitor, single point] |  |
| COc1ccc(CCNC(=O)CCc2c(C)nc3nc(C)nn3c2C)cc1OC |  | inactive: 7.08% |
| COc1cc(OC)c(NC(=O)Nc2ccccc2OCc2cc(=O)n3cc(C)ccc3n2)cc1Cl | active: 8.2 µM |  |
| COC(=O)c1ccc(Nc2cc(C)nc3ccc(C)cc23)cc1 | active: 14.6 µM |  |
| O=C(NCc1ccc2c(c1)OCO2)C(c1ccco1)N(C(=O)c1csnn1)c1ccccc1 (stereo not given) | inconclusive [inhibitor, partial curve] |  |
| Nc1ccc(C(=O)O)cc1S(=O)(=O)O | inconclusive [inhibitor, partial curve] |  |
| CC1CCCC(N2CCN(C(=O)c3ccc([N+](=O)[O-])cc3)CC2)C1 (stereo not given) |  | inactive: -15.7% |
| CC(=O)N1c2nc(-c3ccco3)nn2C2(CCCCC2)[C@@H]2CCCC[C@@H]21 | inconclusive [inhibitor, partial curve] |  |

| Compound | Potency | activity change, negative = growth inhibition |
| --- | --- | --- |
| COc1ccc(NC(=O)CN(C)S(=O)(=O)c2ccc3[nH]c4c(c3c2)CCCC4)cc1Cl | active: 23.1 µM |  |
| CCOC(=O)/C(C#N)=C/c1ccc(N2CCCCC2)cc1 | inconclusive [inhibitor, single point] |  |
| CCOc1ccccc1NC(=O)CN1CCC(NC(=O)Nc2ccccc2)CC1 | inconclusive [inhibitor, single point] |  |
| CC1(C(=O)NS(=O)(=O)c2ccc(Cl)s2)CCN1C(=O)C1(c2ccc(Cl)cc2)CC1 (stereo not given) |  | inactive: 11.1% |
| Cc1ccc(S(=O)(=O)N2CCC(=O)N(CCOC(=O)Nc3ccccc3C)CC2)cc1 |  | inactive: -26.8% |
| O=C(CSc1ccc2ccccc2n1)Nc1nsc(-c2ccc(Cl)cc2)n1 | inactive |  |
| COc1ccc(CN(C)C[C@H]2OCCCC[C@@H](C)Oc3ccc(NC(=O)c4ccccc4)cc3C(=O)N([C@H](C)CO)C[C@@H]2C)cc1 | inconclusive [inhibitor, partial curve, poor fit] |  |
| N#Cc1ccc(C(=O)N2CCCCC2c2cc(C(=O)Nc3cccc(C#N)c3)no2)cc1 (stereo not given) | inconclusive [inhibitor, single point] |  |
| O=C(c1ccc2c(c1)N(Cc1ccc(F)cc1)C(=O)c1ccccc1S2(=O)=O)N1CCC(Cc2ccccc2)CC1 | active: 5.8 µM |  |
| O=C(Nc1ccc(C(=O)N2CCOCC2)cc1)Nc1cccc(C(F)(F)F)c1 | inconclusive [inhibitor, full curve] |  |
| O=C(Nc1cccc(Cl)c1)Nc1nc(-c2ccccc2)cs1 | inconclusive [inhibitor, single point] |  |
| CN(CCOc1ccccc1)C(=O)C1CCN(C(=O)c2ccc(F)cc2)CC1 | inconclusive [inhibitor, partial curve, poor fit] |  |
| COc1ccccc1N1CCN(S(=O)(=O)CCNC(=O)c2cc(OC)c(OC)c(OC)c2)CC1 | inconclusive [inhibitor, single point] |  |
| Cc1cccc(-n2c(=O)c3c(c4cc(C)ccc4n3C)n(Cc3ccccc3F)c2=O)c1 |  | inactive: -14.3% |
| CCc1ccc(/C=C2/Sc3ccccc3N(CC(=O)NCCCN3CCOCC3)C2=O)cc1 | inconclusive [inhibitor, single point] |  |
| O=C(CSc1ncnc2nc[nH]c12)c1ccc2ccccc2c1 | inconclusive [inhibitor, single point] |  |
| Cc1ccc2cc(CCNC(=O)c3cccs3)c(=O)[nH]c2c1C | active: 23.1 µM |  |
| CC(C)N(C(=O)[C@H]1C[C@H](CC(=O)NCc2cccc(C(F)(F)F)c2)C(=O)N2CCc3c([nH]c4cc(-c5ccco5)ccc34)[C@]12C)C(C)C | inconclusive [inhibitor, single point] |  |
| COc1ccc(Cn2c(SCc3ccc(C(=O)NCc4ccccc4F)cc3)nc3cccnc32)cc1 | inconclusive [inhibitor, partial curve, poor fit] |  |
| Cc1cccc2c1OCC/C2=N\NC(=O)COc1ccccc1Cl | inconclusive [inhibitor, single point] |  |
| COC(=O)c1ccc(OC(=O)CN2C(=O)c3ccccc3C2=O)cc1 |  | inactive: 2.11% |
| S=c1[nH]nc(C2CCCCC2)n1/N=C/C=C/c1ccccc1 | active: 25.9 µM |  |
| N#C/C(=C(/O)CSc1ccccc1C(=O)O)c1nc2ccccc2s1 |  | inactive: -12.8% |
| CC(C)(C)c1ccc(C(=O)NC(=S)N2CCCCCC2)cc1 | active: 18.4 µM |  |

| Compound | Potency | activity change, negative = growth inhibition |
| --- | --- | --- |
| O=c1n(Cc2ccccc2)c2cc(Cl)cnc2n1Cc1ccccc1 | inconclusive [inhibitor, single point] |  |
| COc1ccc(CNC(=O)c2cccc(NC(=O)N3CCSc4ncccc43)c2)cc1 | inconclusive [inhibitor, single point] |  |
| COc1ccc(-n2c(SCC(N)=O)nnc2-c2ccc(NS(=O)(=O)c3ccc(C)cc3)cc2)cc1 | inconclusive [inhibitor, partial curve] |  |
| CC(C)CCNC1=CC(=O)CC(c2ccccc2)C1 (stereo not given) | inconclusive [inhibitor, single point] |  |
| Cc1ccc(Cl)cc1N1C(=O)N(Cc2ccc(C#N)cc2)c2ccccc2S1(=O)=O | inconclusive [inhibitor, single point] |  |
| COc1ccc(C2=Nc3ccc(C)cc3NC(c3ccc(Cl)cc3)=N2)cc1 | inconclusive [inhibitor, partial curve] |  |
| CCOc1ccc(C(=O)c2cnc3ccccc3c2N2CCN(CC)CC2)cc1 | inconclusive [inhibitor, single point] |  |
| CCOC(=O)C(C)Sc1nc(-c2ccccn2)ncc1OC (stereo not given) | active: 2.91 µM |  |
| O=C(NCCc1nc2ccccc2[nH]1)/C(=C/c1ccco1)NC(=O)c1ccccc1Br |  | inconclusive: -31.3% [inhibitor] |
| C[C@H]1CN([C@@H](C)CO)C(=O)CCCn2nncc2CO[C@@H]1CN(C)Cc1ccc(Cl)c(Cl)c1 | inconclusive [inhibitor, single point] |  |
| O=C(COc1ccccc1)NCC(=O)NC1CCCCC1 |  | inactive: 1.99% |
| OC(c1ccc(F)cc1)c1nc(-c2cnc3ccccc3c2)cs1 (stereo not given) | active: 18.4 µM |  |
| Cc1ccc2cc(C3CC(c4cccs4)=NN3S(C)(=O)=O)c(Cl)nc2c1 (stereo not given) | inconclusive [inhibitor, single point] |  |
| O=C(NCC1CCCO1)C1CCN(C2CCN(C(=O)CC3CCCC3)CC2)CC1 (stereo not given) |  | inactive: 5.46% |
| CCCCC/C=C/C1=CC(=O)C[C@H](c2ccc(OC)c(OC)c2)C1 | active: 20.6 µM |  |
| O=C1Nc2ccc(F)cc2C12Nc1ccccc1-c1nnc(SCc3ccccc3F)nc1O2 (stereo not given) |  | inconclusive: -34.8% [inhibitor] |
| COc1ccc2c(c1)CCc1cn[nH]c1-2 | inconclusive [inhibitor, single point] |  |
| COC(=O)[C@]1(CC(C)C)N[C@H](c2ccc(-c3ccc(OC)cc3)cc2)[C@@H]2C(=O)N(C)C(=O)[C@@H]21 | inconclusive [inhibitor, single point] |  |
| COc1ccc(-c2noc(N3CCC(C(=O)Nc4ccc(C)c(F)c4)CC3)n2)cc1OC | inconclusive [inhibitor, single point] |  |
| Cc1ccc(C(=O)OCC(=O)N2CCOCC2)cc1 |  | inactive: 1.23% |
| COc1ccc(C(C)=O)cc1CS(=O)(=O)CC(=O)NCCc1c[nH]c2ccccc12 |  | inactive: 2.17% |
| O=c1c2c(nc3c(-c4ccc(Cl)cc4)c[nH]n13)CCCC2 | active: 3.55 µM |  |
